# Measurements from PubChem BioAssay (Tox21).
# The inconclusive results got no clear call from the source; some entries with a clear call stand among them for comparison. A potency beside an inconclusive call is a rough fit, not a confirmed value. Some structures have more than one record in an assay (separate samples or runs), and their calls can disagree. The source made the active and inactive calls. Unless noted, the call rests on the fitted dose curve.
# Experiments:
# [1] = biological target: Peroxisome proliferator-activated receptor gamma (Homo sapiens) (UniProt P37231); assay: qHTS assay to identify small molecule agonists of the peroxisome proliferator-activated receptor gamma (PPARg) signaling pathway (AID 743094; active means well fitted activation curve with a large enough effect in the signal ratio in the repeat runs, not every such curve was filed as active; inconclusive means weak or mixed curves, or effect the other way; inactive means no such curve, though single readings can be large or run the other way; the % refers to the signal ratio; on activation: on the % scale 0 is the no-effect control and ±100 the full control effect); details: HEK293H PPARg-UAS-bla, beta-lactamase FRET ratio, 17 h
# UniProt P37231, sequence (P37231 whole entry, looked up): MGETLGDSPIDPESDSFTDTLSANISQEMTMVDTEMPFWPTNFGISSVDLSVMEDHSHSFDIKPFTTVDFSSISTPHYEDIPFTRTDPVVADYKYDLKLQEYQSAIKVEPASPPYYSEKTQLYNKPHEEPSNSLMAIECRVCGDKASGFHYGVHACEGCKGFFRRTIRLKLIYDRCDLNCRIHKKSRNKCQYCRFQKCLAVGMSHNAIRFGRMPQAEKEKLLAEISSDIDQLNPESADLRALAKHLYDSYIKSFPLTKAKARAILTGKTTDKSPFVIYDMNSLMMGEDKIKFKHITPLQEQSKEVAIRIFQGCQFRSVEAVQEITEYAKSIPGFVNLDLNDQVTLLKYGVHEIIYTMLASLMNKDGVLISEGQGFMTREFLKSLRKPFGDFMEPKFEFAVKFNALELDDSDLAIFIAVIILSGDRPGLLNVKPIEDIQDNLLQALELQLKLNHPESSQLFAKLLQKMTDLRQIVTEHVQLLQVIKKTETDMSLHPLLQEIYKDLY
# How it was run: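 Agonist activity was taken from a beta-lactamase reporter (FRET substrate, 1 h at room temperature) in HEK293H cells carrying a PPARg UAS-bla construct. Compounds in DMSO were incubated 17 h at 37C after a 5 h cell pre-incubation.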
# [2] = biological target: Peroxisome proliferator-activated receptor gamma (Homo sapiens) (UniProt P37231); assay: qHTS assay to identify small molecule antagonists of the peroxisome proliferator-activated receptor gamma (PPARg) signaling pathway (AID 743191); details: HEK293H PPARg-UAS-bla, beta-lactamase ratio, antagonist, 17 h; further: nearly all actives have a fitted effect of over 30% in size; on ratio activity, negative = inhibition: on the % scale 0 is the no-effect control and ±100 the full control effect
# How it was run: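 GeneBLAzer PPARg UAS-bla HEK293H cells carrying a UAS-driven beta-lactamase reporter were plated at 3000 cells/well, preincubated 5 h at 37C, then given compound for 17 h at 37C; LiveBLAzer B/G FRET substrate was read after 1 h at room temperature.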
# [3] = qHTS assay to identify small molecule antagonists of the peroxisome proliferator-activated receptor gamma (PPARg) signaling pathway - cell viability counter screen (AID 743194; active means well fitted curve in the direction sought with a large enough effect in the repeat runs; inconclusive means weak or mixed curves; inactive means no such curve, though single readings can be large; an effect the other way counts as inactive or inconclusive; further: nearly all actives have a fitted effect of over 55% in size; on activity change, negative = cytotoxicity: on the % scale 0 is the no-effect control and ±100 the full control effect); details: PPARg-bla HEK293H viability, CellTiter-Glo luminescence, 17 h, co-treated with 50 nM rosiglitazone; activity change, negative = cytotoxicity: at 62.6 µM (top of the series) unless noted
# How it was run: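 PPARg-UAS-bla HEK293H cells were plated, rested 5 h at 37 C, then treated with compounds plus rosiglitazone (50 nM final) for 17 h at 37 C; viability was then read by CellTiter-Glo luminescence after 30 min at room temperature.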
# [4] = qHTS assay for small molecule agonists of the antioxidant response element (ARE) signaling pathway - cell viability counter screen (AID 743203); details: ARE-bla HepG2 viability, CellTiter-Glo luminescence, 16 h; viability change, negative = cytotoxic: at 73.3 µM (top of the series); further: nearly all actives have a fitted effect of over 55% in size; on viability change, negative = cytotoxic: on the % scale 0 is the no-effect control and ±100 the full control effect
# How it was run: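 Viability counter screen: CellTiter-Glo luminescence, read after 30 min at room temperature, in ARE-bla HepG2 wells. Compound exposure lasted 16 h at 37C/5% CO2, following a 5 h pre-incubation of the cells after plating.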
# [5] = qHTS assay for small molecule agonists of the antioxidant response element (ARE) signaling pathway (AID 743202; active means well fitted activation curve with a large enough effect in the signal ratio in the repeat runs, not every such curve was filed as active; inconclusive means weak or mixed curves, or effect the other way; inactive means no such curve, though single readings can be large or run the other way; the % refers to the signal ratio); details: HepG2 ARE-bla reporter, beta-lactamase FRET, 16 h; activation: at 73.3 µM (top of the series) unless noted
# How it was run: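 Steps: seed ARE-bla HepG2 cells (2,000/well); incubate 5 h at 37 C; add compounds by pin tool; incubate 16 h at 37 C; add FRET substrate; read fluorescence after 2 h at RT.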
# [6] = qHTS assay for small molecule activators of the heat shock response signaling pathway (AID 743210; active means well fitted activation curve with a large enough effect in the signal ratio in the repeat runs, with a control signal flat, not every such curve was filed as active; inconclusive means weak or mixed curves; the % refers to the signal ratio); details: HeLa HSE-bla reporter, beta-lactamase ratio, 5 h; activation: at 62.6 µM (top of the series) unless noted
# How it was run: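 Activation of heat shock element-controlled beta-lactamase expression is measured in HeLa cells by LiveBLAzer FRET fluorescence, with compound exposure lasting 5 h at 37 C and substrate loading 2.5 h at room temperature.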
# [7] = qHTS assay to identify small molecule agonists of the peroxisome proliferator-activated receptor delta (PPARd) signaling pathway - cell viability counter screen (AID 743211; active means well fitted curve in the direction sought with a large enough effect in the repeat runs; inconclusive means weak or mixed curves; inactive means no such curve, though single readings can be large; an effect the other way counts as inactive or inconclusive; further: nearly all actives have a fitted effect of over 55% in size); details: PPARd-bla HEK293H viability, CellTiter-Glo luminescence, 17 h; activity change, negative = cytotoxicity: at 62.6 µM (top of the series)
# How it was run: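 Tox21 library compounds, delivered in DMSO, were incubated 17 h with PPARd-bla HEK293H cells; cytotoxicity was taken from CellTiter-Glo luminescence read 30 min after reagent addition.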
# [8] = qHTS assay for small molecule activators of the heat shock response signaling pathway - cell viability counter screen (AID 743209; active means well fitted curve in the direction sought with a large enough effect in the repeat runs; inconclusive means weak or mixed curves; inactive means no such curve, though single readings can be large; an effect the other way counts as inactive or inconclusive; further: nearly all actives have a fitted effect of over 50% in size); details: HSE-bla HeLa viability, CellTiter-Glo luminescence, 5 h; activity change, negative = cytotoxicity: at 62.6 µM (top of the series) unless noted
# How it was run: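 Cytotoxicity counter screen run in the same wells as the heat-shock bla reporter assay: HeLa HSE-bla cells, 5 h compound exposure at 37 C, viability read by CellTiter-Glo luminescence.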
# [9] = activation: at 57 µM (top of the series) unless noted
# [10] = ratio activity, negative = inhibition: at 62.6 µM (top of the series) unless noted
# Potency means the concentration at half of the fitted maximal effect; tags describe the fitted curve by direction and shape or compound fluorescence and quenching.
compound,measurement,setting,value
COc1cc(C(=O)N2CCCCCCC2)cc(OC)c1OC,Potency,[1]; [9],inactive
same,Potency,[2]; [10],inactive
same,Potency,[3],inactive
same,Potency,[4],inactive
CC(C)=CCOc1ccc(/C=C/C(=O)c2ccc(OCC=C(C)C)cc2OCC(=O)O)cc1,Potency,[1]; [9],inconclusive: 4.25 µM [full curve]
same,Potency,[2]; [10],"inconclusive: 6.68 µM [rising, partial curve]"
same,Potency,[3],active: 29.8 µM
same,Potency,[5],active: 3.35 µM
same,Potency,[4],"inconclusive: 33.5 µM [cytotoxic, single point]"
same,Potency,[6],inconclusive: 7.79 µM
CC/C(C)=N\O[Si](C)(O/N=C(\C)CC)O/N=C(\C)CC,Potency,[1]; [9],inactive
same,Potency,[2]; [10],inactive
CCOCCOCCOC(C)=O,Potency,[1]; [9],inactive
same,"ratio activity, negative = inhibition",[2]; [10],inconclusive: -11.5% [at 81.1 µM]
CCOC(=O)COc1cc(-n2ncc(C(F)(F)F)c(C)c2=O)c(F)cc1Cl,Potency,[1]; [9],inactive
same,Potency,[2]; [10],inactive
NCCCCCCN,Potency,[1]; [9],inactive
same,Potency,[2]; [10],inactive
same,Potency,[3],"inconclusive: 0.554 µM [cytotoxic, full curve, poor fit]"
same,activation,[5],inconclusive: -1.86%
O=c1c(-c2ccccc2)c1-c1ccccc1,Potency,[1]; [9],"inconclusive: 12 µM [fluorescent, full curve]"
same,Potency,[2]; [10],inconclusive: 13.3 µM
same,Potency,[3],"inconclusive: 11.9 µM [cytotoxic, single point]"
same,Potency,[5],inconclusive: 33.5 µM [single point]
same,Potency,[6],inconclusive: 22.4 µM
same,Potency,[7],"inconclusive: 33.5 µM [cytotoxic, single point]"
CCCCN(CCCC)C(=S)SSC(=S)N(CCCC)CCCC,activation,[1]; [9],inconclusive: -10.6%
same,Potency,[2]; [10],active: 24.3 µM
same,Potency,[3],inactive
same,activation,[5],inconclusive: 26%
same,Potency,[6],active: 1.37 µM
CCCCCCCC/C=C\CCCCCCCC(=O)O,Potency,[1]; [9],"inconclusive: 43.6 µM [activator, partial curve]"
same,Potency,[2]; [10],inconclusive: 17.5 µM [activator]
same,"ratio activity, negative = inhibition",[2]; [10],inconclusive: -36.5%
same,Potency,[8],active: 34.7 µM
same,Potency,[7],"inconclusive: 61.7 µM [cytotoxic, single point]"
O=C(O)c1cc2ccccc2nc1C(=O)O,Potency,[1]; [9],inactive
COc1cc(NCc2ccc3nc(N)nc(N)c3c2C)cc(OC)c1OC,activation,[1]; [9],inconclusive: -18%
same,Potency,[2]; [10],"inconclusive: 0.119 µM [inhibitor, full curve]"
same,Potency,[3],"inconclusive: 0.168 µM [cytotoxic, full curve]"
same,Potency,[5],"inconclusive: 0.0422 µM [rising, full curve]"
same,Potency,[7],"inconclusive: 0.119 µM [cytotoxic, full curve]"
C[Si](O[Si](C)(C)C)O[Si](C)(C)C,activation,[1]; [9],inconclusive: 0.174% [at 78.9 µM]
same,"ratio activity, negative = inhibition",[2]; at 62.6 µM (top of the series),inactive: -17.5%
same,"ratio activity, negative = inhibition",[2]; [10],inconclusive: 2.76% [at 81.1 µM]
same,activation,[5],inconclusive: -21.5% [at 94.8 µM]
COCc1c(C(C)C)nc(C(C)C)c(/C=C/[C@@H](O)C[C@@H](O)CC(=O)O)c1-c1ccc(F)cc1,Potency,[1]; [9],"inconclusive: 26.8 µM [rising, single point]"
same,"ratio activity, negative = inhibition",[2]; [10],inconclusive: -28.9%
same,Potency,[3],inactive
same,Potency,[5],inconclusive: 13.3 µM
CC(C)(Oc1ccc(Cl)cc1)C(=O)O,activation,[1]; [9],inconclusive: 10.5%
same,activation,[1]; at 57 µM (top of the series),inactive: 4.91%
same,"ratio activity, negative = inhibition",[2]; at 62.6 µM (top of the series),inactive: 5.74%
same,"ratio activity, negative = inhibition",[2]; [10],inconclusive: 23.4%
same,activation,[5],inconclusive: 6.47%
CC(=O)OC[C@H]1O[C@@H](n2ncc(=O)[nH]c2=O)[C@H](OC(C)=O)[C@@H]1OC(C)=O,activation,[1]; [9],inconclusive: -12.5%
same,Potency,[2]; [10],active: 0.841 µM
Cc1c(C(=O)NN2CCCCC2)nn(-c2ccc(Cl)cc2Cl)c1-c1ccc(Cl)cc1,Potency,[1]; [9],"inconclusive: 10.7 µM [rising, full curve, poor fit]"
same,Potency,[2]; [10],inconclusive: 6.68 µM
same,Potency,[3],"inconclusive: 5.96 µM [cytotoxic, full curve, poor fit]"
same,activation,[5],inconclusive: -3.52%
same,Potency,[8],"inconclusive: 18.8 µM [cytotoxic, partial curve]"
same,Potency,[6],inconclusive: 23.7 µM
COC(=O)CC(C(C)=O)C(=O)OC (stereo not drawn),Potency,[1]; [9],inactive
same,"ratio activity, negative = inhibition",[2]; [10],inconclusive: 17.4%
same,activation,[5],inconclusive: 18.9%
CCCCCCCCCCCC(=O)OCC(O)CO (stereo not drawn),Potency,[1]; [9],"inconclusive: 37.9 µM [fluorescent, single point]"
same,activation,[1]; [9],inconclusive: 0.618%
same,"ratio activity, negative = inhibition",[2]; [10],inconclusive: -0.113%
same,Potency,[5],inactive
same,Potency,[8],"inconclusive: 54.9 µM [cytotoxic, single point]"
same,Potency,[6],inconclusive: 61.6 µM
same,Potency,[7],"inconclusive: 21.9 µM [cytotoxic, full curve]"
